# Results published in article PMC12820563.
# The list shows a part of the results. The list includes weakly bound sequences.
# Target: T1, MBP-FoxP3dN (UniProt Q99JB6)
# T1 sequence: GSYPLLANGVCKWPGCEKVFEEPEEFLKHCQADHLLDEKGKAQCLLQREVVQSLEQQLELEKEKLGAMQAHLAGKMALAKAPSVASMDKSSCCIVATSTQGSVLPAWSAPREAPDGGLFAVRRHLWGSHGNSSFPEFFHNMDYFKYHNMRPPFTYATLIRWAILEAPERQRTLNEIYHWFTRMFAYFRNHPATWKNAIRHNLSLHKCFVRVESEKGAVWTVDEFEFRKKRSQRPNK
# Test: PD-seq (MBP pull-down with sequencing)
# Details: 20 mM Tris-HCl pH 7.5, 100 mM NaCl, 1.5 mM MgCl2, 0.4 uM protein, 0.1 uM dsDNA library, 30 min, room temperature, amylose pull-down; high values mean tight binding; double strand, one strand shown
row,Sequence,binding signal (RPM ratio (pull-down/input))
1,GATGATTGTTCTCCCAGCTGATGAATTGTGAAGTTCGAGTAAACAAATTTTCCTAATCTTTCTGTTCAAGCGCCATCTAC,0.445
2,GATGATTGTTCTCCCAGCTGATGAATTTACCGCATCGAGTAAACAAATTTTCCTAATCTTTCTGTTCAAGCGCCATCTAC,1.17
3,GATGATTGTTCTCCCAGCTGATGAATTTTTACTCTCGAGTAAACAAATTTTCCTAATCTTTCTGTTCAAGCGCCATCTAC,0.238
4,GATGATTGTTCTCCCAGCTGATGAATTCGTAATATCGAGTAAACAAATTTTCCTAATCTTTCTGTTCAAGCGCCATCTAC,0.56
5,GATGATTGTTCTCCCAGCTGATGAATTTTTTGATTCGAGTAAACAAATTTTCCTAATCTTTCTGTTCAAGCGCCATCTAC,0.323
6,GATGATTGTTCTCCCAGCTGATGAATTGGAGGTTTCGAGTAAACAAATTTTCCTAATCTTTCTGTTCAAGCGCCATCTAC,0.469
7,GATGATTGTTCTCCCAGCTGATGAATTTAATTTATCGAGTAAACAAATTTTCCTAATCTTTCTGTTCAAGCGCCATCTAC,2.28
8,GATGATTGTTCTCCCAGCTGATGAATTCGTATCATCGAGTAAACAAATTTTCCTAATCTTTCTGTTCAAGCGCCATCTAC,1.52
9,GATGATTGTTCTCCCAGCTGATGAATTTCTCACATCGAGTAAACAAATTTTCCTAATCTTTCTGTTCAAGCGCCATCTAC,0.35
10,GATGATTGTTCTCCCAGCTGATGAATTCGAGGTGTCGAGTAAACAAATTTTCCTAATCTTTCTGTTCAAGCGCCATCTAC,0.763
11,GATGATTGTTCTCCCAGCTGATGAATTTATACTCTCGAGTAAACAAATTTTCCTAATCTTTCTGTTCAAGCGCCATCTAC,0.936
12,GATGATTGTTCTCCCAGCTGATGAATTGTCATTCTCGAGTAAACAAATTTTCCTAATCTTTCTGTTCAAGCGCCATCTAC,1.1
13,GATGATTGTTCTCCCAGCTGATGAATTAGGCGTATCGAGTAAACAAATTTTCCTAATCTTTCTGTTCAAGCGCCATCTAC,1.26
14,GATGATTGTTCTCCCAGCTGATGAATTGCGTATTTCGAGTAAACAAATTTTCCTAATCTTTCTGTTCAAGCGCCATCTAC,3.53
15,GATGATTGTTCTCCCAGCTGATGAATTATGCCAGTCGAGTAAACAAATTTTCCTAATCTTTCTGTTCAAGCGCCATCTAC,3.15
16,GATGATTGTTCTCCCAGCTGATGAATTATTGCGGTCGAGTAAACAAATTTTCCTAATCTTTCTGTTCAAGCGCCATCTAC,0.799
17,GATGATTGTTCTCCCAGCTGATGAATTCCTCACTTCGAGTAAACAAATTTTCCTAATCTTTCTGTTCAAGCGCCATCTAC,0.282
18,GATGATTGTTCTCCCAGCTGATGAATTGTCAACATCGAGTAAACAAATTTTCCTAATCTTTCTGTTCAAGCGCCATCTAC,3.6
19,GATGATTGTTCTCCCAGCTGATGAATTTTCTATGTCGAGTAAACAAATTTTCCTAATCTTTCTGTTCAAGCGCCATCTAC,0.331
20,GATGATTGTTCTCCCAGCTGATGAATTCACCTCGTCGAGTAAACAAATTTTCCTAATCTTTCTGTTCAAGCGCCATCTAC,0.296

row,Sequence,binding signal (RPM ratio (pull-down/input))
1,GATGATTGTTCTCCCAGCTGATGAATTGTTAGCTTCGAGTAAACAAATTTTCCTAATCTTTCTGTTCAAGCGCCATCTAC,1.56
2,GATGATTGTTCTCCCAGCTGATGAATTCTGTTTGTCGAGTAAACAAATTTTCCTAATCTTTCTGTTCAAGCGCCATCTAC,6.99
3,GATGATTGTTCTCCCAGCTGATGAATTTCCGCCCTCGAGTAAACAAATTTTCCTAATCTTTCTGTTCAAGCGCCATCTAC,0.63
4,GATGATTGTTCTCCCAGCTGATGAATTCATTCGATCGAGTAAACAAATTTTCCTAATCTTTCTGTTCAAGCGCCATCTAC,0.244
5,GATGATTGTTCTCCCAGCTGATGAATTTATGTTTTCGAGTAAACAAATTTTCCTAATCTTTCTGTTCAAGCGCCATCTAC,3.55
6,GATGATTGTTCTCCCAGCTGATGAATTGCGACAATCGAGTAAACAAATTTTCCTAATCTTTCTGTTCAAGCGCCATCTAC,1.06
7,GATGATTGTTCTCCCAGCTGATGAATTCGTTTTGTCGAGTAAACAAATTTTCCTAATCTTTCTGTTCAAGCGCCATCTAC,3.54
8,GATGATTGTTCTCCCAGCTGATGAATTGCACAGCTCGAGTAAACAAATTTTCCTAATCTTTCTGTTCAAGCGCCATCTAC,0.692
9,GATGATTGTTCTCCCAGCTGATGAATTGGGGAACTCGAGTAAACAAATTTTCCTAATCTTTCTGTTCAAGCGCCATCTAC,0.256
10,GATGATTGTTCTCCCAGCTGATGAATTATAGCAATCGAGTAAACAAATTTTCCTAATCTTTCTGTTCAAGCGCCATCTAC,2.17
11,GATGATTGTTCTCCCAGCTGATGAATTCGTGAGATCGAGTAAACAAATTTTCCTAATCTTTCTGTTCAAGCGCCATCTAC,0.292
12,GATGATTGTTCTCCCAGCTGATGAATTCGAGGAATCGAGTAAACAAATTTTCCTAATCTTTCTGTTCAAGCGCCATCTAC,0.185
13,GATGATTGTTCTCCCAGCTGATGAATTAGAGCAATCGAGTAAACAAATTTTCCTAATCTTTCTGTTCAAGCGCCATCTAC,1.88
14,GATGATTGTTCTCCCAGCTGATGAATTCGATGTATCGAGTAAACAAATTTTCCTAATCTTTCTGTTCAAGCGCCATCTAC,2.15
15,GATGATTGTTCTCCCAGCTGATGAATTGGGGCCCTCGAGTAAACAAATTTTCCTAATCTTTCTGTTCAAGCGCCATCTAC,0.403
16,GATGATTGTTCTCCCAGCTGATGAATTCCAGAGGTCGAGTAAACAAATTTTCCTAATCTTTCTGTTCAAGCGCCATCTAC,0.237
17,GATGATTGTTCTCCCAGCTGATGAATTAAGAGTGTCGAGTAAACAAATTTTCCTAATCTTTCTGTTCAAGCGCCATCTAC,0.967
18,GATGATTGTTCTCCCAGCTGATGAATTGGATATATCGAGTAAACAAATTTTCCTAATCTTTCTGTTCAAGCGCCATCTAC,0.715
19,GATGATTGTTCTCCCAGCTGATGAATTCAGGGCATCGAGTAAACAAATTTTCCTAATCTTTCTGTTCAAGCGCCATCTAC,0.625
20,GATGATTGTTCTCCCAGCTGATGAATTTTCATCCTCGAGTAAACAAATTTTCCTAATCTTTCTGTTCAAGCGCCATCTAC,0.287
